The text below walks through data of ChEMBL document CHEMBL1201862, “PubChem BioAssay data set” (2004).

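Growth conditions: 96-well plates. Treatment: test compound, 48 hours, 5 concentrations. Analysis: linear interpolation between bracketing concentrations; unreached endpoints set to highest concentration. The concentration for 50% growth inhibition is given as GI50.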 Active and inactive are the calls of the source. Rule as the data show it: active = GI50 up to about 1.1 µM and inactive = higher.

This assay relates to NCI-H322M. In words: NCI-60 cell line screen, 48 h.
Turning to `CC1=NN(C(=O)c2ccc(Cl)cc2)C(=O)/C1=C/c1cccc([N+](=O)[O-])c1`, the GI50 was inactive: > 100 µM. The result for `COc1ccc2[nH]c(C(=O)N3CC(CCl)c4ccc(N)cc43)cc2c1` (stereo unspecified) reads active: 0.384 µM.

Regarding `CC1=CC(O)C(O)C2(C)C1CC1OC(=O)C(O)C3C(C)C(O)C4(O)OCC13C42` (stereo unspecified), the GI50 is inactive: 27.9 µM. In the case of `O=C1C=C(c2c(O)ccc3ccccc23)c2ccccc2C1=O` it was inactive: 5.9 µM; in that of `CSc1nc(Cl)c(Br)c(Nc2cnc(O)nc2O)n1`, inactive: 16.7 µM; in that of `CN(C)CCNC(=O)c1ccc(Cl)c2c(Nc3ccc(S(N)(=O)=O)cc3)c3ccccc3nc12`, inactive: 1.88 µM. In the case of `Cc1nc2c3c(ccc2nc1O)C(=O)c1ccccc1C3=O` it was inactive: 30.5 µM. The result for `[N-]=[N+]=Nc1cc(=O)n(-c2ccccc2)c(=O)n1-c1ccccc1` reads inactive: > 100 µM; that for `S=C1/C(=N/c2ccccc2)N(c2ccccc2)/C(=N\c2ccccn2)N1c1ccccc1`, inactive: 16.8 µM.

For the molecule `Cc1cn(C(C)OCCN2C(=O)c3ccccc3C2=O)c(=O)[nH]c1=O` (stereo unspecified), the GI50 was inactive: > 100 µM. In the case of `Brc1ccc2c(c1)-c1nc3nc4c(cc3cc1CC2)CCc1ccc(Br)cc1-4` it was inactive: > 100 µM.

With `COc1ccc(/C(C)=N/OC(=O)c2c(-c3ccccc3Cl)noc2C)cc1CN1CCOCC1`, the GI50 was inactive: 31.2 µM.

On to `CCCCCCCCCCCCCCCCCCNc1ccn(C2OC(COP(=O)(O)OCC3OC(n4cc(C)c(=O)[nH]c4=O)CC3N=[N+]=[N-])C(O)C2O)c(=O)n1` (stereo unspecified), for which the GI50 is inactive: 19.6 µM.

On to `O=C(O)COc1ccc(C(=O)/C(SS/C(C(=O)c2ccc(OCC(=O)O)c(Cl)c2Cl)=C2\C=C(c3ccc(Br)cc3)SS2)=C2/C=C(c3ccc(Br)cc3)SS2)c(Cl)c1Cl`, for which the GI50 was inactive: 39.5 µM. For `CC(C)(C)OC(=O)NC(Cc1ccc(OCc2ccccc2)cn1)C(N)=O` (stereo unspecified), the GI50 is inactive: > 100 µM.

For the molecule `C[C@]12C=CC(=O)C=C1CC[C@@H]1[C@@H]2CC[C@@]2(C)[C@H]1CC[C@]2(O)C(N)=O`, the GI50 was inactive: > 100 µM.

`Cc1cc(C)n(C(=O)C(C)Sc2nnc(SC(C)C(=O)n3nc(C)cc3C)s2)n1` (stereo unspecified): the GI50 was inactive: > 100 µM. In the case of `CN1CCc2ccccc2C(C(=O)c2ccc3c(c2)OCO3)C1=O` (stereo unspecified) it was inactive: > 100 µM. The result for `CCC1(CC)CC(=NNS(=O)(=O)c2ccc(C)cc2)C1` reads inactive: > 100 µM; that for `Cc1cc(O)c2c(c1)C(=O)C(c1c(C)cc3c(c1O)C(=O)C1OC1C3=O)=CC2=O` (stereo unspecified), inactive: 10.9 µM. In the case of `O=C1CC(CC(O)[C@@H]2CCCC[C@@H]2O)CC(=O)N1c1ccccc1` (stereo partly specified) it was inactive: > 100 µM; in that of `O=C(O)c1c(CC(Cc2ccc3c(c2)CCCC3)C(=O)O)ccc2c1CCCC2` (stereo unspecified), inactive: > 100 µM; in that of `O=c1ccn(C2OC(COC3CCCCO3)C(OC3CCCCO3)C2OC2CCCCO2)c(=O)n1-c1ccccc1` (stereo unspecified), inactive: > 100 µM. For the molecule `CN(C)CC1CN(C(=O)Nc2ccccc2)C(=N)O1` (stereo unspecified), the GI50 is inactive: > 100 µM. On to `Cc1ccc(S(=O)(=O)NN=C2CCCCCCCCCCC2)cc1`, for which the GI50 is inactive: > 100 µM. As for `O=C(c1cc(Cl)ccc1Cl)N1CCN(C(=O)c2cc(Cl)ccc2Cl)CC1`, the GI50 was inactive: > 100 µM. The result for `O=[N+]([O-])c1ccc(Sc2c3ccccc3nc3ccccc23)nc1` reads inactive: 22.4 µM; that for `CC(C)(C)O/C=C1/C(=O)OC2C[C@@H](O[Si](C)(C)C(C)(C)C)CC12` (stereo partly specified), inactive: > 100 µM; that for `O=C(NC(=S)Nc1ccc([N+](=O)[O-])cc1)c1ccc2c(c1)Sc1ccccc1O2`, inactive: > 100 µM. Regarding `Clc1ccc(Cc2nc3cc(CCN4CCN(c5ccccc5)CC4)ccc3[nH]2)cc1`, the GI50 was inactive: 29.6 µM.

In the case of `O=C1C(C(O)(C(F)(F)Cl)C(F)(F)Cl)CCCC1C(O)(C(F)(F)Cl)C(F)(F)Cl` (stereo unspecified), the GI50 is inactive: > 10 µM. The result for `CCCCC(C(=O)NCCNC(=O)CCC(=O)N(C)O)C(=O)NCCNC(=O)CCC(=O)N(C)O` reads inactive: > 100 µM. In the case of `Nc1nn2c(C(Br)Br)cc(C(Br)Br)nc2c1[N+](=O)[O-]` it was inactive: 3.3 µM; in that of `O=C1/C(=C/c2ccc(Cl)cc2)CCC1CN1CCOCC1` (stereo unspecified), inactive: 22.9 µM; in that of `COc1ccc2c3c([nH]c2c1[N+](=O)[O-])C(C)N(C(=O)/C=C/c1ccccc1)CC3` (stereo unspecified), inactive: 4.25 µM. Regarding `O=C1OC(=O)c2c1c(-c1ccccc1)nc1ccccc21`, the GI50 was inactive: > 100 µM. The result for `O=c1[nH]c(=O)n(C2CC(O)C(CO)O2)cc1Oc1ccccc1` (stereo unspecified) reads inactive: > 100 µM. Turning to `CCOC(=O)c1nc(C)oc1C(F)(F)F`, the GI50 was inactive: > 100 µM. In the case of `C/C(=N\Nc1nc2ccccc2s1)c1cccnn1` it was inactive: 2.67 µM; in that of `CCOC(=O)C1(C(=O)OCC)COS(=O)OC1`, inactive: > 100 µM; in that of `Nc1ccc2c(c1)nc1n2C(c2c(F)cccc2F)SC1` (stereo unspecified), inactive: > 100 µM. As for `Cc1ccc(S(=O)(=O)NC(CO)C(=O)O)cc1` (stereo unspecified), the GI50 is inactive: > 100 µM.

For `Cc1c(C(=O)NNc2ccccc2)n2c(S)nnc2c2ccccc12`, the GI50 was inactive: > 100 µM. The result for `CC(C)(C)Sc1nnc(SC(C)(C)C)c2c(SC(C)(C)C)nnc(O)c12` reads inactive: 12.3 µM; that for `COc1ccc(C(OCC2OC(n3cc(C)c(=O)[nH]c3=O)CC2n2cc(Cn3cc(Cl)c(=O)[nH]c3=O)nn2)(c2ccccc2)c2ccccc2)cc1` (stereo unspecified), inactive: > 100 µM; that for `CCCC/C=C1\CCC(CN2CCOCC2)C1=O` (stereo unspecified), inactive: 17.1 µM. In the case of `CN(C)CCCn1nc(N)c2nc3cc(Cl)ccc3nc21` it was inactive: 24.1 µM.

Turning to `CC(=O)C1C(=O)C(=O)N(c2ccccc2C(C)C)C1=O` (stereo unspecified), the GI50 was inactive: > 100 µM. With `CC(NC(=O)Cc1ccc(OP(=O)(OCc2ccc([N+](=O)[O-])o2)N(C)CCCCCl)cc1)c1ccc(OCC2CCCCC2)c(C(N)=O)c1` (stereo unspecified), the GI50 was inactive: 2.8 µM. In the case of `O=C(NNC(=O)c1ccncc1)c1ccncc1` it was inactive: > 100 µM; in that of `CC(=O)OC[C@H]1O[C@@H](O[C@H]2[C@H](OC(C)=O)C=CO[C@@H]2COC(C)=O)C(OC(C)=O)[C@H]2OC(C)(C)O[C@H]21` (stereo partly specified), inactive: > 100 µM; in that of `COc1cccc2c1C(=O)c1c(O)c3c(c(O)c1C2=O)C[C@@](O)(C(=O)CO)CC3OC1CC(NCCCCC(OC(C)=O)OC(C)=O)C(O)C(C)O1` (stereo partly specified), active: 0.00338 µM. Consider `CC(C)C1COC(C(C)(C)C2=N[C@@H](C(C)C)CO2)=N1` (stereo partly specified), for which the GI50 is inactive: > 100 µM. In the case of `COc1ccc(CN[C@H]2CCc3cc(OC)c(OC)c(OC)c3-c3ccc(SC)c(=O)cc32)c(OC)c1OC` it was active: 0.0279 µM; in that of `COc1ccc(OC)c(C#Cc2ccc(OC)c(C(=O)NCCc3ccc(F)cc3)c2)c1`, inactive: > 100 µM; in that of `COc1cc2c3c(n(C)c(=O)c2cc1OC)-c1cc2c(cc1C3=O)OCO2`, inactive: 40.1 µM.
